Assay results from PubChem BioAssay AID686979 (National Center for Advancing Translational Sciences (NCATS), 2013).
Hit rate of the full screen: of about 420,000 compounds, about 50,000 (12%) were called active. This list was built around the results that the source calls inconclusive (neither active nor inactive); the mix of calls is not that of the screen. Calls come from the whole dose curve; as a rule, active = well fitted inhibition curve with a large enough effect; inconclusive = small, poorly fitted or top-dose-only effect; inactive = flat fitted curve, though single readings scatter. Potencies of inconclusive entries are left out as doubtful fits.
% is set by controls: 0 for no effect and ±100 for the full control effect; potency is the fitted concentration of half-maximal effect; tags give direction and shape of the fitted curve.

Assay: qHTS for Inhibitors of human tyrosyl-DNA phosphodiesterase 1 (TDP1): qHTS in cells in presence of CPT; note: nearly all actives have a fitted effect of over 55% in size
Details: chicken DT40 Tdp1-/-;hTDP1 cells + 20 nM CPT, ATP luminescence, 48 h; activity change, negative = growth inhibition: at 46.2 µM (top of the series)
In short: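 Cell growth measured by CellTiter-Glo luminescence after a minimum 48 h, 37 C compound exposure with 20 nM CPT in Tdp1-knockout DT40 cells stably expressing hTDP1, seeded 400/well; qHTS titration format.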
For `O=C(O)c1nn(CCOc2c(Cl)cccc2Cl)c(=O)c2ccccc12`, the Potency was inconclusive [inhibitor, single point]. With `O=C(c1noc2c1CCCC2)N1CCOc2ccc(CN3CCN(c4ccccn4)CC3)cc2C1` the activity change, negative = growth inhibition was inactive: 10.3% [at 9.04 µM]. For `COc1ccc(C(C(=O)NC2CCCC2)N(CC2CCCO2)C(=O)Cc2cccs2)cc1OC` (configuration not stated), the “activity change, negative = growth inhibition” value was inactive: 5.09%. With `CS(=O)(=O)N(CCc1ccccc1)CC(=O)NCc1ccco1` the “activity change, negative = growth inhibition” value was inactive: 8.54%. With `N#Cc1c(NC(=O)c2cc([N+](=O)[O-])ccc2N2CCOCC2)sc2c1CCCC2` the “activity change, negative = growth inhibition” value was inactive: 6.01%. For `COc1ccc(OC)c(S(=O)(=O)NC(=O)C2(C)CCN2C(=O)C2(c3ccc(Cl)cc3)CC2)c1` (configuration not stated), the “activity change, negative = growth inhibition” value was inactive: -4.53%. In the case of `CCc1nnc(NC(=O)C(c2ccccc2)c2ccccc2)s1`, the Potency is reported as inconclusive [inhibitor, single point]. With `COc1cc([N+](=O)[O-])ccc1NC(=O)/C=C/C(=O)O` the “activity change, negative = growth inhibition” value was inactive: 2.29%. With `COc1ccc(NC(=O)c2c(C)oc3ccc(O)c(CN4CCCC(C)C4)c23)cc1Cl` (configuration not stated) the Potency was active: 23.1 µM. With `c1cncc(CNc2ccnc(-c3cccnc3)n2)c1` the Potency was inconclusive [inhibitor, single point]. In the case of `CN(C)c1ccc(S(=O)(=O)c2ccc(Cl)cc2)cc1`, the Potency is reported as inconclusive [inhibitor, partial curve, poor fit]. For `Clc1cccc(-c2nc3c4ccccc4ccn3c2Cc2ccccc2)c1`, the Potency was inconclusive [inhibitor, single point]. With `COc1ccc(C(CC(=O)Nc2ccc(F)cc2)c2ccccc2)cc1` (configuration not stated) the Potency was inconclusive [inhibitor, single point]. For `CC(C)S(=O)(=O)c1csc(NC(=O)Nc2cccc([N+](=O)[O-])c2)c1Cl`, the Potency was active: 16.4 µM. For `COc1ccc(N2CCN(C(=O)c3ccc(CS(=O)Cc4ccc(C)cc4)o3)CC2)cc1` (configuration not stated), the Potency was inconclusive [inhibitor, single point]. In the case of `COc1ccc(C(=O)NCCS(=O)(=O)NC(C)c2ccccc2)cc1` (configuration not stated), the “activity change, negative = growth inhibition” value is reported as inactive: -21.6%. With `Cc1ccc(CNc2ncnc3c2cnn3C2CCCCO2)cc1` (configuration not stated) the “activity change, negative = growth inhibition” value was inactive: -10.9%. In the case of `O=C(N/N=C/c1ccncc1)c1cc([N+](=O)[O-])cc([N+](=O)[O-])c1O`, the Potency is reported as inconclusive [inhibitor, single point]. In the case of `COc1ccccc1-c1cn(S(=O)(=O)c2ccc(C)cc2)nc1N`, the Potency is reported as inconclusive [inhibitor, partial curve, poor fit]. In the case of `COc1ccc(C(=O)Nc2ccccc2N2CCOCC2)cc1S(=O)(=O)N1CCOCC1`, the Potency is reported as inconclusive [inhibitor, single point]. In the case of `Cc1ccc(N2CCN(C(=O)CCc3c(C)nc4ncnn4c3C)CC2)c(C)c1`, the Potency is reported as inconclusive [inhibitor, single point]. For `COc1ccc(NC(=S)NCCc2ccccc2)c(OC)c1`, the Potency was inconclusive [inhibitor, single point]. In the case of `CCNC(=O)c1cc(S(=O)(=O)N2CCSCC2)ccc1OC`, the “activity change, negative = growth inhibition” value is reported as inactive: 4.29%. In the case of `Cc1ccc(OCCNC(=O)c2cccc(S(=O)(=O)NCc3ccccc3)c2)cc1`, the Potency is reported as active: 4.11 µM. In the case of `Cc1nc2c(c(C)nn2-c2ccccc2)c(C)c1CCC(=O)Nc1ccc(CN2CCCC2)cc1`, the Potency is reported as active: 16.4 µM. With `c1ccc2c(C[C@@H]3CNCCN3CC3CCCCC3)cccc2c1` the Potency was active: 14.6 µM. With `CCc1ccc2oc(=O)cc(CN3CCCCC3C)c2c1` (configuration not stated) the Potency was inconclusive [inhibitor, single point]. With `Cc1ccccc1N1C(N)=NC(N)=NC1(C)C` the “activity change, negative = growth inhibition” value was inactive: -2.3%. For `CCOc1cc(C(=O)Nc2cc(C)ccn2)cc(OCC)c1OCC`, the Potency was active: 18.4 µM. For `COc1ccc(-c2nc(CN3CCC(C(=O)NCCN(CC(C)C)CC(C)C)CC3)c(C)o2)cc1OC`, the activity change, negative = growth inhibition was inconclusive: -35.5% [inhibitor]. For `CCC(Oc1ccccc1F)C(=O)NCCCn1ccnc1` (configuration not stated), the “activity change, negative = growth inhibition” value was inactive: -12.3%. For `CCCCN(C(=O)C1CCCO1)c1c(N)n(CCC)c(=O)[nH]c1=O` (configuration not stated), the “activity change, negative = growth inhibition” value was inactive: 1.94%. For `COC(=O)COc1ccc(S(=O)(=O)NCc2cccnc2)cc1C`, the “activity change, negative = growth inhibition” value was inactive: -3.11%. In the case of `COc1ccc2c(c1)c(CC(=O)Nc1ccccc1OC)c(C)n2C(=O)c1ccc(Cl)cc1`, the Potency is reported as inconclusive [inhibitor, single point]. For `COc1ccc(NC(=O)c2nc[nH]c2C(=O)NCc2ccccc2)cc1`, the activity change, negative = growth inhibition was inconclusive: -35.3% [inhibitor]. For `CCn1cc(C(=O)NCCc2ccc(OC)c(OC)c2)c(=O)c2cc(S(=O)(=O)N3CCc4ccccc4C3)ccc21`, the Potency was inconclusive [inhibitor, single point]. With `CC(C)c1ccc(NC(=O)C2CCCN(S(=O)(=O)c3cccnc3)C2)cc1` (configuration not stated) the Potency was active: 16.4 µM. In the case of `Cc1ncc(CO)c2c1Oc1nc(-c3ccccc3F)nc(SCC(=O)N3CCCCC3)c1C2`, the Potency is reported as inconclusive [inhibitor, single point]. With `COCc1ccc(-c2c(-c3ccccc3OC)sc3cc4c(cc23)OCO4)cc1` the Potency was inconclusive [inhibitor, single point]. In the case of `O=C(COc1ccc(Cl)cc1Br)N1CCN(S(=O)(=O)c2ccccc2)CC1`, the Potency is reported as inconclusive [inhibitor, single point]. For `Cc1ccc(CNC(=O)C2(C)CCN2C(=O)Cc2ccc(-c3ccccc3)cc2)cc1` (configuration not stated), the Potency was inconclusive [inhibitor, single point]. With `COc1ccc(NC(=O)Cn2nnc(-c3ccccc3F)n2)cc1Cl` the Potency was inconclusive [inhibitor, single point]. With `CCOc1cccc(-c2cc(-c3n[nH]c(=S)n3CC)c3ccccc3n2)c1` the “activity change, negative = growth inhibition” value was inactive: -23.1%. In the case of `C=CCOc1ccc(C=Nc2cccc(Cl)c2)c(O)c1`, the “activity change, negative = growth inhibition” value is reported as inactive: -17.9%. With `O=C(OCCN1CCOCC1)C(c1ccccc1)c1ccccc1` the activity change, negative = growth inhibition was inconclusive: -30.3% [inhibitor]. For `Cc1ccc(NC2CCCN(C(=O)c3ccoc3)C2)cc1C` (configuration not stated), the “activity change, negative = growth inhibition” value was inactive: -11.5%. In the case of `CCCc1cc(C(=O)Nc2ccc(C(=O)c3ccc(F)cc3)cc2)n(C)n1`, the Potency is reported as inconclusive [inhibitor, single point].
